Laboratory results reported in PMC4336329 (PLoS ONE, 2015).
The whole screen tested about 310,000 compounds, of which about 14,000 (4.5%) showed an effect of 50% or more. Effects have a minus sign here. Some of the results follow.

These compounds were tested against human ether-à-go-go-related gene (hERG) potassium channel (human, UniProt Q12809) (assay: primary screen, population patch clamp on CHO cells stably expressing hERG).
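Also: peak tail current of the secondary pulse compared with the same well before compound.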

human ether-à-go-go-related gene (hERG) potassium channel, sequence (Q12809 whole entry, looked up): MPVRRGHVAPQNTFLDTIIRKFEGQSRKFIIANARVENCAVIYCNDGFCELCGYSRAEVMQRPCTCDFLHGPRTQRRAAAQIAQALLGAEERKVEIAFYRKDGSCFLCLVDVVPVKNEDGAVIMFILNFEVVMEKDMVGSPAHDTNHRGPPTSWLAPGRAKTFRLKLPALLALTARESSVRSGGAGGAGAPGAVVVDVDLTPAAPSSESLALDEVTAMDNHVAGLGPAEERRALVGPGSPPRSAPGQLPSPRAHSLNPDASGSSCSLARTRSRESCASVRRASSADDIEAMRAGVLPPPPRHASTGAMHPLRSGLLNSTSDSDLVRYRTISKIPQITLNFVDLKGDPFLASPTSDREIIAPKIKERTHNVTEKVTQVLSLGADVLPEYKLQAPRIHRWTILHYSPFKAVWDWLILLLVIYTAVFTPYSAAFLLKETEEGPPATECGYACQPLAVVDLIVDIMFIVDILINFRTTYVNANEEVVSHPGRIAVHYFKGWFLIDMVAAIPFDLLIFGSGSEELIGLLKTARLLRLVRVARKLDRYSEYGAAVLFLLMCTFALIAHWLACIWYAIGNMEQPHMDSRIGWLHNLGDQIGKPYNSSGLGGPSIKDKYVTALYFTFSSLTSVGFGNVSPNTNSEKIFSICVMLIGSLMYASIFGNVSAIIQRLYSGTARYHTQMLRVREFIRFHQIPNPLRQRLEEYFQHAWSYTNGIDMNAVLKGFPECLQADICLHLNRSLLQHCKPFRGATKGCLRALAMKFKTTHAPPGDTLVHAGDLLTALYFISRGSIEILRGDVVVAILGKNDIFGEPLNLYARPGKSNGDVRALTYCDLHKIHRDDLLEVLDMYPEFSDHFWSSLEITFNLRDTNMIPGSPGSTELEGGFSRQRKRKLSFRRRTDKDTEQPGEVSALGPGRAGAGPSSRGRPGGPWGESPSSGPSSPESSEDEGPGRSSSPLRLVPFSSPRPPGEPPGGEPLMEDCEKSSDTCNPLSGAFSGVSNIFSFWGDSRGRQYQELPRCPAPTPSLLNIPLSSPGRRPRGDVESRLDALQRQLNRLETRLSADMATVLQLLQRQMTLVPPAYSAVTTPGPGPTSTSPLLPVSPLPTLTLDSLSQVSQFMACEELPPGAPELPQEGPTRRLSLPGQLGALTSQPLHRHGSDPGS

Row | Structure (SMILES) | hERG current change (%, negative = inhibition) at 10uM
1 | CCN1CCCC1CN(Cc1cc2cc(C)cc(C)c2[nH]c1=O)C(=O)Nc1ccccc1OC (stereo not drawn) | -61.4%
2 | O/N=C/c1ccc2ccccc2n1 | 14%
3 | CC1(C)Cc2c(cnn2-c2cccc(F)c2)C(NC(=O)Cn2cccn2)C1 (stereo not drawn) | -11.5%
4 | CCOC(=O)CSC1=NC(=O)/C(=C/c2ccc(Br)cc2)S1 | 18.3%
5 | COc1ccc(NC(=S)NC(=O)c2csnn2)cc1 | -0.62%
6 | CCn1cc(C(=O)NCCCN2CCC(C)CC2)c2cc(OC)c(OC)cc2c1=O | -1.66%
7 | O=C(CCN1C(=O)CSC1=O)Nc1ccccc1 | 19.9%
8 | Cc1oc(C(=O)O)cc1COc1ccc2c3c(c(=O)oc2c1)CCC3 | 3.86%
9 | C/C(=N\O)C1CCCCC1 | 11.7%
10 | CCOC(=O)C(C)(C)N(Cc1ccc(C)cc1)S(=O)(=O)c1ccc(Cl)c([N+](=O)[O-])c1 | 15.2%
11 | CCN(CC(=O)Nc1ccc(OC)cc1)C(=O)Cc1ccc(OC)c(S(=O)(=O)N2CCOCC2)c1 | 2.14%
12 | CCN(CC)S(=O)(=O)c1ccc(S(=O)(=O)Nc2c(C)nn(C)c2C)cc1 | 16.9%
13 | CCOC(=O)CSc1nnc(CNC(=O)c2ccc(OC)cc2)n1Cc1ccccc1 | -7.4%
14 | Cc1cc(O)c(C2(C(F)(F)F)NCCNC2=O)cc1C (stereo not drawn) | 12.7%
15 | CCOc1ccc2oc(C(=O)OCC(=O)N3C(C)CCCC3C)c(C)c2c1 (stereo not drawn) | -9.63%
16 | CC(=O)N1CCc2cc(S(=O)(=O)CCC(=O)N3CCN(c4ccccn4)CC3)ccc21 | -11%
17 | CCCCc1nccn1CCn1ccnc1CCCC.Cl | -5.64%
18 | CCOC(=O)C1(Cc2ccc(Cl)cc2)CCN(C(=O)CCc2cnccn2)CC1 | -50%
19 | COC(=O)CN1C(=O)[C@H]2[C@@H](c3ccc(C)o3)N3C(=O)CN(CC4CC4)C(=O)[C@@]3(C)[C@H]2C1=O | -0.425%
20 | COc1ccccc1C1CCN(c2ccc(CO)cc2[N+](=O)[O-])CC1 | 4.52%
21 | CC(=O)c1sc(C(C)(C)C)cc1NC(=O)/C=C/C(=O)O | 13.6%
22 | O=C(O)CC1Oc2ccc(Cl)cc2NC1=O (stereo not drawn) | 8.61%

Row | Structure (SMILES) | hERG current change (%, negative = inhibition) at 10uM
23 | CC(=O)NC(Cc1cnc[nH]1)C(=O)O (stereo not drawn) | 3.31%
24 | CCN1CCN(c2nc(Nc3cc(OC)ccc3OC)nc(Nc3cc(OC)ccc3OC)n2)CC1 | 10.6%
25 | CCOc1ccccc1N(CC(=O)Nc1cc(OC)ccc1OC)S(C)(=O)=O | -10.8%
26 | COCCNC(=O)c1cc(-c2ccc3c(c2)OCO3)on1 | 8.54%
27 | CC(=O)c1ccc(N2CCN(C(=O)Nc3ccc(C)cc3)CC2)cc1 | -4.03%
28 | O=C1c2ccccc2C(=O)N1CC1c2ccccc2CCN1S(=O)(=O)c1ccccc1 (stereo not drawn) | 5.9%
29 | COc1cccc(C(=O)C2CN(C)CC2c2ccc(Cl)cc2)c1 (stereo not drawn) | -66.4%
30 | O=C(Nc1ccc(Br)cc1)C1CCCN(C2=NS(=O)(=O)c3ccccc32)C1 (stereo not drawn) | -29.1%
31 | COc1cnc(-c2ccccn2)nc1Oc1ccc(F)cc1F | 4.34%
32 | CC(CCc1ccccc1)NC(=O)Cn1cccc1C(=O)c1ccccc1 (stereo not drawn) | 9.36%
33 | CCCc1cc(C(=O)OCC(=O)N2CCN(c3ccc(OC)cc3)CC2)sc1C | -41.8%
34 | Cc1c(C)c2ccc(OCC(=O)NCCCN3CCCC3=O)cc2oc1=O | 9.72%
35 | C=CC[n+]1c(-c2ccc(OC)cc2)csc1NNC(=O)Nc1ccccc1.[Br-] | 7.96%
36 | Cc1cc(NC(=O)C(C)SCC(=O)OCc2c(Cl)cccc2Cl)no1 (stereo not drawn) | -5.9%
37 | O=C1CC(=O)CC(c2ccco2)C1 | 8.17%
38 | CC1CCCN(C(=O)COc2ccc3c(c2)OCO3)C1 (stereo not drawn) | 5.07%
39 | CC(C)C[C@H](NC(=O)OC(C)(C)C)c1nnc(SCc2ccccc2)o1 | -27.7%
40 | O=C1CC(C(=O)Nc2ccccc2)C2(CCCCC2)O1 (stereo not drawn) | 13.6%
41 | N#Cc1c(NC(=O)CSc2nnc(-c3ccccc3)o2)sc2c1CCCC2 | -0.683%
42 | Cc1cccc(C)c1NC(=O)COC(=O)c1cccnc1 | 4.43%
43 | O=C(NCCN1CCOCC1)c1c[nH]c2ccc(S(=O)(=O)N3CCOCC3)cc2c1=O | 8.53%
44 | C#CCOCCOCCOCCNc1nc(N2CCN(C(=O)CCCCCCCCCCNC(=O)Cn3cc(C[C@@H](C)O)nn3)CC2)nc(N2CCN(C(=O)CCCCCCCCCCNC(=O)[C@H](CCCCN)n3cc(C[C@@H](C)CC)nn3)CC2)n1 | 1.18%

Row | Structure (SMILES) | hERG current change (%, negative = inhibition) at 10uM
45 | Cc1onc(-c2ccccc2Cl)c1C(=O)NC(=S)NCc1cccnc1 | -29.5%
46 | CCn1c(=O)c(CCC(=O)N2CCN(c3ccccn3)CC2)c(C)c2c(C)nn(-c3cccc(C)c3)c21 | -2.32%
47 | CC(C)(C)C1CCc2c(sc(NC(=O)C3CCCO3)c2C(N)=O)C1 (stereo not drawn) | -20.7%
48 | CCC1CN(C(=O)NCc2ccc(F)cc2)c2cc(C)ccc2O1 (stereo not drawn) | -18.1%
49 | Cn1ncnc1SCc1cn2cccnc2n1 | 14.2%
50 | COc1cccc(CNS(=O)(=O)c2cc3c(cc2C)NC(=O)CO3)c1 | -25.4%
51 | O=C(OCC(=O)c1c[nH]c2ccccc12)c1cccc(O)c1 | -5.24%
52 | COc1ccc(C(=O)NC2CCCc3c2cnn3-c2cccc(C)c2C)o1 (stereo not drawn) | -30.6%
53 | CC(C(=O)N1CCN(c2ccc([N+](=O)[O-])cc2)CC1)N1C(=O)C2CC=CCC2C1=O (stereo not drawn) | -72.2%
54 | CCN(CC)CCNC(=O)/C(=C\c1cccn1C)NC(=O)c1cccs1 | -23.6%
55 | COc1ccc(CCNC(=O)COc2ccc(S(=O)(=O)N3CCOCC3)cc2)cc1 | 3.06%
56 | CC(Nc1ccc(F)cc1F)C(=O)NC(=O)NC1CCCCC1 (stereo not drawn) | 24.5%
57 | Cc1ccc(N2C(=O)CSC2=S)cc1C | 12.6%
58 | COc1ccc(-n2c(C)cc(/C=C3/SC(=O)N(CC(=O)N4CCOCC4)C3=O)c2C)cc1 | 9.21%
59 | O=C(COC(=O)c1ccccc1)Nc1ccccc1N1CCOCC1 | -7.41%
60 | COc1cccc(NC(=O)[C@H](CC(C)C)NC(=O)[C@@H]2Cc3ccccc3CN2)c1 | -16%
61 | O=C(Oc1cccc(NC2=NS(=O)(=O)c3ccccc32)c1)c1ccncc1 | 11.2%
62 | CC1(C)Cc2c(sc(NC(=O)C(C)(C)C)c2C#N)C(C)(C)N1 | 3.16%
63 | O=C(COC(=O)c1cnccn1)c1ccc(-c2ccccc2)cc1 | 11.9%
64 | CCCC(c1nnnn1C1CCCCC1)N1CCN(c2ncccn2)CC1.Cl (stereo not drawn) | -10.1%
65 | CCOc1ccc(C(=O)NCc2ccco2)cc1Cl | -4.19%
66 | COc1ccc(C(=O)NCCCCCCNC(=O)c2ccc(OC)cc2)cc1 | -5.13%

Row | Structure (SMILES) | hERG current change (%, negative = inhibition) at 10uM
67 | Cc1ccc(-c2nn3c(C)nnc3c3ccccc23)cc1S(=O)(=O)NCCO | 11%
68 | COc1ccc(S(=O)(=O)NCc2ccc(C(=O)NCc3cccnc3)cc2)cc1 | -1.21%
69 | COC(=O)c1sc(SC)c(S(=O)(=O)C(C)C)c1N/N=C(\C#N)C(=O)c1ccccc1 | -8.18%
70 | CCCn1c(N)c(C(=O)CSc2nnc(N)s2)c(=O)[nH]c1=O | -15%
71 | COc1ccc(CC2C(=O)NC(=O)N(c3ccccc3)C2=O)c(OC)c1 (stereo not drawn) | 13.2%
72 | CC12CCC(=O)N1C(C(=O)Nc1nc(-c3ccccc3Cl)cs1)CS2 (stereo not drawn) | -6.16%
73 | Cn1c(C(=O)NCCc2ccsc2)cc2c(=O)n(C)c3ccccc3c21 | -7.88%
74 | COc1ccc(-n2c(C)cc(C(=O)CN3C(=O)NC4(CCc5ccccc54)C3=O)c2C)cc1 (stereo not drawn) | -6.91%
75 | Cc1cc(Nc2cccc(F)c2)nc(N2CCOCC2)n1 | -17%
76 | O=C1NC(=O)C(=Cc2ccc(N3CCOCC3)o2)C(=O)N1 | 26.7%
77 | CCn1cc(C(=O)NCc2ccco2)c(=O)c2cc(S(=O)(=O)N3CCC(C)CC3)ccc21 | -36.5%
78 | O=C1C(Cl)=C(N2CCCCCC2)C(=O)N1c1ccc(Cl)cc1 | 11.7%
79 | COC(=O)C(Cc1ccccc1)NC(=O)CNC(=O)c1ccc(Br)o1 (stereo not drawn) | 3.41%
80 | O=C(/C=C/c1ccc(F)cc1)N1CCN(S(=O)(=O)/C=C/c2ccccc2)CC1 | 14.2%
81 | CC(=O)NC(Cc1ccccc1)C(=O)NC1CCN(C(=O)NC2CCCCC2)CC1 (stereo not drawn) | -0.881%
82 | COc1cc(NC(=O)Cc2c(C(=O)O)n(C)c3ccccc23)cc(OC)c1OC | 35%
83 | O=[N+]([O-])c1ccc(N=NN(CCO)CCO)cc1 | -75.3%
84 | COc1ccc2oc(=O)c(C(=O)Nc3ccccc3O)cc2c1 | 8.79%
85 | CCN(CC)CCCNC(=O)CNC(=O)c1nn(-c2ccc(OC)cc2)c(=O)c2ccccc12 | 23.8%
86 | Cc1cc(C)nc(SCCN(C)C)n1.O=C(O)CCC(=O)O | 17.6%
87 | CC(=O)Nc1ccc2c(c1)N(C(=O)CN(C)C)c1ccccc1CC2 | 9.22%
